Legend:
[1] = test system: HEK293 cells transfected with a NF-kappaB reporter construct; test: NF-kappaB reporter gene assay; type: cell-based; conditions: 11 identified antibodies, human IgG1
Description: NF-kappaB reporter gene assays were performed to assess the agonistic activity of all 11 identified antibodies (human IgG1). HEK293 cells were transiently transfected with a NF-kappaB reporter construct (BioCat, cat. No. LR-0051-PA) using 293fectin according to manufacturer's instruction. White poly-lysine coated 384well plates (BD) were seeded with transfected cells in F17 media (serum-free; Invitrogen) at 37C, 5% CO2. On the next day cells were stimulated with purified antibodies at different concentrations for 6 h and subsequently a luciferase assay was carried out following standard procedures.

[2] = molecular target: T1, TWEAKR protein (TPP-2305) (Homo sapiens, UniProt Q9NP84); test: Biacore monovalent KD with TWEAKR protein; conditions: first order 1:1 binding model
T1 construct: TPP-2305; hTNFRSF12Aaa28-80; Human; 30R-AT080; 168; purchased Fitzgerald Inc 30R-AT080
Description: Binding affinities of anti-TWEAKR antibodies were determined by surface plasmon resonance analysis on a Biacore T100 instrument (GE Healthcare Biacore, Inc.). Antibodies were immobilized onto a CM5 sensor chip through an indirect capturing reagent, anti-human IgG(Fc). Reagents from the “Human Antibody Capture Kit” (BR-1008-39, GE Healthcare Biacore, Inc.) were used as described by the manufacturer. Anti-TWEAKR antibodies were injected at a concentration of 10 μg/ml at 10 μl/min for 10 sec.
Sensorgrams were generated after in-line reference cell correction followed by buffer sample subtraction. The dissociation equilibrium constant (KD) was calculated based on the ratio of association (kon) and dissociation rated (koff) constants, obtained by fitting sensorgrams with a first order 1:1 binding model.

Molecule	agonistic activity / in vitro efficacy [1]	ka [2] [M⁻¹ s⁻¹]	kd [2] [s⁻¹]
TPP-883: anti-TWEAKR human IgG1 from phage display library; heavy chain SEQ ID NO: 72, light chain SEQ ID NO: 71 (antibody, listed as Homo Sapiens) heavy: EVQLLESGGGLVQPGGSLRLSCAASGFTFSPYPMMWVRQAPGKGLEWVSYISPSGGKTHYADSVKGRFTISRDNSKNTLYLQMNSLRAEDTAVYYCARGGDGYFDYFDYWGQGTLVTVSSASTKGPSVFPLAPSSKSTSGGTAALGCLVKDYFPEPVTVSWNSGALTSGVHTFPAVLQSSGLYSLSSVVTVPSSSLGTQTYICNVNHKPSNTKVDKRV[human IgG1 Fc not shown] light: AQDIQMTQSPATLSASVGDRVTITCRASQSISSYLNWYQQKPGKAPKLLIYAASSLQSGVPSRFSGSGSGTDFTLTISSLQPEDFATYYCQQSYSSPGITFGPGTKVEIKRTVAAPSVFIFPPSDEQLKSGTASVVCLLNNFYPREAKVQWKVDNALQSGNSQESVTEQDSKDSTYSLSSTLTLSKADYEKHKLYACEVTHQGLSSPVTKSFNRGEC	strongest in vitro efficacy	4.4e+06	0.91
TPP-2077: anti-TWEAKR human IgG1; heavy chain SEQ ID NO: 52, light chain SEQ ID NO: 51 (antibody, listed as Homo Sapiens) heavy: EVQLLESGGGLVQPGGSLRLSCAASGFTFSPYPMMWVRQAPGKGLEWVSYISPSGGKTHYADSVKGRFTISRDNSKNTLYLQMNSLRAEDTAVYYCARGGDTYFDYFDYWGQGTLVTVSS[human IgG1 constant region not shown] light: DIQMTQSPATLSASVGDRVTITCRASQSISSYLNWYQQKPGKAPKLLIYAASSLQSGVPSRFSGSGSGTDFTLTISSLQPEDFATYYCQQSYSSPGITFGPGTKVEIKRTVAAPSVFIFPPSDEQLKSGTASVVCLLNNFYPREAKVQWKVDNALQSGNSQESVTEQDSKDSTYSLSSTLTLSKADYEKHKLYACEVTHQGLSSPVTKSFNRGEC		3e+06	0.086
